{
  "source": "paper PMC11995724",
  "about": "“Antibiotic target discovery by integrated phenotypic and activity-based profiling of electrophilic fragments” (Cell chemical biology, 2025)",
  "note": "Out of some 3,200 compounds screened, about 110 (3.4%) showed an effect of 50% or more. The list shows a part of the results.",
  "data": [
    {"test_system": "T1, V. cholerae SAD30", "T1 construct": "SAD30", "parameters": "species or system S. aureus MSSA476 (TSB) or V. cholerae SAD30 (LB); 384-well bacterial growth screen at 25 uM, OD600 relative to DMSO control", "details": "relative growth, OD600, LB; 25 µM; inhibitor", "units": {"% of control remaining": "%"}, "values": [
      {"smiles": "C=CC(=O)NCC1CCN(Cc2ccccc2)CC1C", "note": "(centres unmarked) [3-G20, N-[(1-benzyl-3-methylpiperidin-4-yl)methyl]prop-2-enamide]", "% of control remaining": 87.8552},
      {"smiles": "C=CC(=O)Nc1cnn(CCF)c1", "note": "[1-E05, N-[1-(2-fluoroethyl)-1H-pyrazol-4-yl]prop-2-enamide]", "% of control remaining": 98.0568},
      {"smiles": "CCC(=O)Nc1cccc(NC(=O)CCl)c1C", "note": "[5-K04, N-[3-(2-chloroacetamido)-2-methylphenyl]propanamide]", "% of control remaining": 100.872},
      {"smiles": "C=CC(=O)N1CCN(c2nccn(C)c2=O)CC1", "note": "[3-P20, 1-methyl-3-[4-(prop-2-enoyl)piperazin-1-yl]-1,2-dihydropyrazin-2-one]", "% of control remaining": 112.38},
      {"smiles": "C=CC(=O)Nc1ccc(C(=O)N2CCC(S(=O)(=O)NC)C2)cc1", "note": "(centres unmarked) [3-O08, N-{4-[3-(methylsulfamoyl)pyrrolidine-1-carbonyl]phenyl}prop-2-enamide]", "% of control remaining": 98.9708},
      {"smiles": "C=CC(=O)N1CCOC2(CCCCCC2)C1", "note": "[1-L08, 1-{1-oxa-4-azaspiro[5.6]dodecan-4-yl}prop-2-en-1-one]", "% of control remaining": 106.968},
      {"smiles": "C=CC(=O)Nc1cccc(-c2nc(COC)no2)c1C", "note": "[1-J08, N-{3-[3-(methoxymethyl)-1,2,4-oxadiazol-5-yl]-2-methylphenyl}prop-2-enamide]", "% of control remaining": 104.514},
      {"smiles": "COc1cccc2cc(C=C(C#N)C(=O)Nc3ccc(C)cc3)oc12", "note": "[9-A17, 2-cyano-3-(7-methoxy-1-benzofuran-2-yl)-N-(4-methylphenyl)prop-2-enamide]", "% of control remaining": 83.5486},
      {"smiles": "CC(Cl)C(=O)Nc1ccc(F)cc1", "note": "(centres unmarked) [6-K15, 2-chloro-N-(4-fluorophenyl)propanamide]", "% of control remaining": 87.9704},
      {"smiles": "Cc1cc(C)n(CCCNC(=O)C(C)Cl)n1", "note": "(centres unmarked) [7-O19, 2-chloro-N-[3-(3,5-dimethyl-1H-pyrazol-1-yl)propyl]propanamide]", "% of control remaining": 79.1674},
      {"smiles": "COc1cccc(NC(=O)C(C#N)=Cc2cccc(O)c2)c1", "note": "[8-P03, 2-cyano-3-(3-hydroxyphenyl)-N-(3-methoxyphenyl)prop-2-enamide]", "% of control remaining": 82.4609},
      {"smiles": "CC1=C(C#N)C(=O)N(C)C(=O)C1=Cc1ccc(-c2ccccc2Cl)o1", "note": "[9-K18, 5-{[5-(2-chlorophenyl)furan-2-yl]methylidene}-1,4-dimethyl-2,6-dioxo-1,2,5,6-tetrahydropyridine-3-carbonitrile]", "% of control remaining": 79.0619},
      {"smiles": "Cc1ccc(NC(=O)C(C#N)=Cc2cccc(C(F)(F)F)c2)c(C)c1", "note": "[8-H11, 2-cyano-N-(2,4-dimethylphenyl)-3-[3-(trifluoromethyl)phenyl]prop-2-enamide]", "% of control remaining": 67.6411},
      {"smiles": "CC(NC(=O)CCl)c1ccc(-c2ccccc2)cc1", "note": "(centres unmarked) [5-A17, N-(1-{[1,1'-biphenyl]-4-yl}ethyl)-2-chloroacetamide]", "% of control remaining": 96.3329},
      {"smiles": "N#CC(=Cc1cnc2ccccn12)C(=O)NCc1ccccc1", "note": "[9-P18, N-benzyl-2-cyano-3-{imidazo[1,2-a]pyridin-3-yl}prop-2-enamide]", "% of control remaining": 86.6757},
      {"smiles": "C=CC(=O)Nc1cccc(-c2ccon2)c1", "note": "[3-L04, N-[3-(1,2-oxazol-3-yl)phenyl]prop-2-enamide]", "% of control remaining": 96.5006},
      {"smiles": "N#CC(=Cc1ccc(OC(F)F)cc1)C(=O)N1CCCC1", "note": "[8-L22, 3-[4-(difluoromethoxy)phenyl]-2-(pyrrolidine-1-carbonyl)prop-2-enenitrile]", "% of control remaining": 77.0224},
      {"smiles": "CC(Cl)C(=O)c1ccc(C(C)(C)C)cc1", "note": "(centres unmarked) [10-D14, 1-(4-tert-butylphenyl)-2-chloropropan-1-one]", "% of control remaining": 99.5909},
      {"smiles": "C=CC(=O)N1CCC(C(=O)NCCC2CCS(=O)(=O)C2)CC1", "note": "(centres unmarked) [2-H05, N-[2-(1,1-dioxo-1lambda6-thiolan-3-yl)ethyl]-1-(prop-2-enoyl)piperidine-4-carboxamide]", "% of control remaining": 92.975},
      {"smiles": "COc1ccc2cc(CN(C)C(=O)CCl)ccc2c1", "note": "[4-A19, 2-chloro-N-[(6-methoxynaphthalen-2-yl)methyl]-N-methylacetamide]", "% of control remaining": 94.8889},
      {"smiles": "CCCCNC(=O)C(C#N)=Cc1ccc(C)s1", "note": "[9-J06, N-butyl-2-cyano-3-(5-methylthiophen-2-yl)prop-2-enamide]", "% of control remaining": 70.0884},
      {"smiles": "C=CC(=O)N1CCC(C(=O)NC2CCCc3nc(C)ncc32)CC1", "note": "(centres unmarked) [3-I17, N-(2-methyl-5,6,7,8-tetrahydroquinazolin-5-yl)-1-(prop-2-enoyl)piperidine-4-carboxamide]", "% of control remaining": 88.9138},
      {"smiles": "C=CC(=O)NC(C(N)=O)c1ccccc1F", "note": "(centres unmarked) [2-H19, N-[carbamoyl(2-fluorophenyl)methyl]prop-2-enamide]", "% of control remaining": 94.519},
      {"smiles": "C=CC(=O)N(C)CC(=O)NC1CCC(N2CCCCC2=O)CC1", "note": "(centres unmarked) [3-A06, N-methyl-N-({[4-(2-oxopiperidin-1-yl)cyclohexyl]carbamoyl}methyl)prop-2-enamide]", "% of control remaining": 122.084},
      {"smiles": "COc1ccc(C=C(C#N)C(=O)Nc2ccccc2C)cc1O", "note": "[8-P15, 2-cyano-3-(3-hydroxy-4-methoxyphenyl)-N-(2-methylphenyl)prop-2-enamide]", "% of control remaining": 82.3249},
      {"smiles": "C=CC(=O)N(Cc1ccc2c(c1)CCC2)Cc1c(C)noc1C", "note": "[1-L09, N-[(2,3-dihydro-1H-inden-5-yl)methyl]-N-[(3,5-dimethyl-1,2-oxazol-4-yl)methyl]prop-2-enamide]", "% of control remaining": 74.8879},
      {"smiles": "COc1cc(NC(=O)CCl)c(C)cc1[N+](=O)[O-]", "note": "[4-M09, 2-chloro-N-(5-methoxy-2-methyl-4-nitrophenyl)acetamide]", "% of control remaining": 98.512},
      {"smiles": "CCc1ccc(NC(=O)C(C#N)=Cc2ccn(-c3ccccc3)n2)cc1", "note": "[8-K22, 2-cyano-N-(4-ethylphenyl)-3-(1-phenyl-1H-pyrazol-3-yl)prop-2-enamide]", "% of control remaining": 84.7723},
      {"smiles": "CCCCNC(=O)C(C#N)=Cc1cccc2ccccc12", "note": "[8-N13, N-butyl-2-cyano-3-(naphthalen-1-yl)prop-2-enamide]", "% of control remaining": 68.5928}
    ]}
  ]
}
